Some of the results follow. These are enrichments in a pooled selection; single values are uncertain. Scores sum up all selected molecules that hold the word; the word was not tested alone.

The values that follow come from the supplement of paper PMC6531468.

Chain of IMP3 KH3-4 (chain, as listed by the source): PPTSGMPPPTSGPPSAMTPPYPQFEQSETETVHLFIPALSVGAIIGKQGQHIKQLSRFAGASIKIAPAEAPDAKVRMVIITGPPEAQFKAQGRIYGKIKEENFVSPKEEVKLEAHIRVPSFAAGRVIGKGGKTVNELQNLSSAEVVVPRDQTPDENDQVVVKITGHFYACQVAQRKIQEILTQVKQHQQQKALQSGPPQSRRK
Chain of IMP3 KH1-2 (chain, as listed by the source): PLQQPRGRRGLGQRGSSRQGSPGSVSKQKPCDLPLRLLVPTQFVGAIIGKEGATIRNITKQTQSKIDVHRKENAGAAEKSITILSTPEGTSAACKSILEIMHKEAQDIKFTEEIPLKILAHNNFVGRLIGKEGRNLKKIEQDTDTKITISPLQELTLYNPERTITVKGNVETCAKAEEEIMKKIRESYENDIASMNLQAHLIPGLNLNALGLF

The subject of one assay is IMP3 KH1-2. Kind of assay: 6-mer SELEX enrichment z-score vs GST control; IMP3 is the RNA-binding protein IGF2BP3; higher = more enriched by binding. The note with it: construct: KH1-2 (164-376); SELEX round: R4. As for the experimental part:
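SELEX-seq with GST-tagged IMP3 KH1-2 (Pro164-Phe376) and an N40 RNA pool, round 4 (stringent 300/600 mM KCl washes). 6-mer z-score of sequence-tag enrichment normalised to the corresponding GST SELEX round; RNA k-mers written as DNA (T for U).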
As for GGTCGG, the “6-mer SELEX enrichment z-score” value turned out to be 1.04.

As for TGGGAT, the “6-mer SELEX enrichment z-score” value turned out to be 0.333.

With AGGTAT, the “6-mer SELEX enrichment z-score” value is -0.069.

TATTCG: the “6-mer SELEX enrichment z-score” value came out at 0.215.

In the case of TGACTT, the “6-mer SELEX enrichment z-score” value was determined as 0.026.

For the sequence CTGAGG, the “6-mer SELEX enrichment z-score” value was -0.086.

With CTACAG, the “6-mer SELEX enrichment z-score” value worked out at 0.12.

With TGGTGG, the “6-mer SELEX enrichment z-score” value was found to be 0.641.

Consider GATCAA, for which the “6-mer SELEX enrichment z-score” value was -0.065.

As to TGAATC, the “6-mer SELEX enrichment z-score” value was -0.039.

Take GACCGT: the “6-mer SELEX enrichment z-score” value was -0.904.

Regarding GTGTAG, the “6-mer SELEX enrichment z-score” value is -1.78.

For the sequence GCCCCT, the “6-mer SELEX enrichment z-score” value was -0.135.

On to GGTCTC, for which the “6-mer SELEX enrichment z-score” value was -0.121.

For AAAGCG, the “6-mer SELEX enrichment z-score” value is -3.03.

Take ATTATC: the “6-mer SELEX enrichment z-score” value came out at 0.799.

Consider TCGTAG, for which the “6-mer SELEX enrichment z-score” value is -0.581.

CAACTC: the “6-mer SELEX enrichment z-score” value was -0.592.

In the case of CGCCCG, the “6-mer SELEX enrichment z-score” value is -0.789.

In the case of CACGAG, the “6-mer SELEX enrichment z-score” value was -2.49.

For the sequence ATGGCA, the “6-mer SELEX enrichment z-score” value was determined as 1.07.

As for CCACAA, the “6-mer SELEX enrichment z-score” value is -0.514.

As to GGACGC, the “6-mer SELEX enrichment z-score” value was -0.174.

For the sequence GCAATG, the “6-mer SELEX enrichment z-score” value worked out at 0.269.

For the sequence GATTAA, the “6-mer SELEX enrichment z-score” value was determined as 0.911.

Turning to AACAGC, the “6-mer SELEX enrichment z-score” value is -0.717.

With GCTACT, the “6-mer SELEX enrichment z-score” value was -0.003.

In the case of CGCGTT, the “6-mer SELEX enrichment z-score” value was -0.676.

For the sequence CCGGCG, the “6-mer SELEX enrichment z-score” value is -0.583.

On to AGCTTG, for which the “6-mer SELEX enrichment z-score” value is -0.485.

On to CGTTGG, for which the “6-mer SELEX enrichment z-score” value was -0.326.

For CGTTGA, the “6-mer SELEX enrichment z-score” value was -0.897.

As for TCCTGC, the “6-mer SELEX enrichment z-score” value was -0.473.

Regarding CCCACG, the “6-mer SELEX enrichment z-score” value is -1.47.

In the case of TGAATG, the “6-mer SELEX enrichment z-score” value was 0.378.

As to GGATAA, the “6-mer SELEX enrichment z-score” value came out at 0.394.

For AACCCT, the “6-mer SELEX enrichment z-score” value was -1.66.

With CCCACT, the “6-mer SELEX enrichment z-score” value was -0.59.

As for AGTAAA, the “6-mer SELEX enrichment z-score” value amounted to 0.057.

As for TCCACG, the “6-mer SELEX enrichment z-score” value was -0.496.

Another assay has as its system IMP3 KH3-4. The description is as above. The note with it: construct: KH3-4 (377-579); SELEX round: R4. On the procedure:
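SELEX-seq with GST-tagged IMP3 KH3-4 (Pro377-Lys579) and an N40 RNA pool, round 4. 6-mer z-score of sequence-tag enrichment normalised to the corresponding GST SELEX round; RNA k-mers written as DNA (T for U).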
Turning to GGTCGG, the “6-mer SELEX enrichment z-score” value is 0.937.

In the case of TGGGAT, the “6-mer SELEX enrichment z-score” value was 0.501.

For the sequence AGGTAT, the “6-mer SELEX enrichment z-score” value stood at 0.153.

In the case of TATTCG, the “6-mer SELEX enrichment z-score” value is 0.389.

Consider TGACTT, for which the “6-mer SELEX enrichment z-score” value stood at 0.168.

As to CTGAGG, the “6-mer SELEX enrichment z-score” value is -0.099.

In the case of CTACAG, the “6-mer SELEX enrichment z-score” value is -0.123.

As for TGGTGG, the “6-mer SELEX enrichment z-score” value was found to be 0.589.

On to GATCAA, for which the “6-mer SELEX enrichment z-score” value came out at 0.145.

Turning to TGAATC, the “6-mer SELEX enrichment z-score” value came to 0.087.

Turning to GACCGT, the “6-mer SELEX enrichment z-score” value is -1.05.

As to GTGTAG, the “6-mer SELEX enrichment z-score” value is -1.65.

For the sequence GCCCCT, the “6-mer SELEX enrichment z-score” value is -0.702.

With GGTCTC, the “6-mer SELEX enrichment z-score” value was -0.055.

Consider AAAGCG, for which the “6-mer SELEX enrichment z-score” value was -2.6.

Consider ATTATC, for which the “6-mer SELEX enrichment z-score” value was found to be 0.892.

TCGTAG: the “6-mer SELEX enrichment z-score” value was -0.474.

As to CAACTC, the “6-mer SELEX enrichment z-score” value is -1.23.

As to CGCCCG, the “6-mer SELEX enrichment z-score” value is -1.31.

Turning to CACGAG, the “6-mer SELEX enrichment z-score” value is -2.41.

As for ATGGCA, the “6-mer SELEX enrichment z-score” value was found to be 1.49.

Take CCACAA: the “6-mer SELEX enrichment z-score” value was -1.41.

Consider GGACGC, for which the “6-mer SELEX enrichment z-score” value was -0.318.

GCAATG: the “6-mer SELEX enrichment z-score” value was 0.525.

Consider GATTAA, for which the “6-mer SELEX enrichment z-score” value came out at 1.96.

As for AACAGC, the “6-mer SELEX enrichment z-score” value was -1.1.

For the sequence GCTACT, the “6-mer SELEX enrichment z-score” value is -0.017.

Take CGCGTT: the “6-mer SELEX enrichment z-score” value was -0.576.

With CCGGCG, the “6-mer SELEX enrichment z-score” value is -0.592.

In the case of AGCTTG, the “6-mer SELEX enrichment z-score” value was -0.387.

As to CGTTGG, the “6-mer SELEX enrichment z-score” value is -0.29.

Regarding CGTTGA, the “6-mer SELEX enrichment z-score” value was -0.786.

As for TCCTGC, the “6-mer SELEX enrichment z-score” value is -0.811.

Turning to CCCACG, the “6-mer SELEX enrichment z-score” value was -2.16.

Take TGAATG: the “6-mer SELEX enrichment z-score” value is 1.17.

As for GGATAA, the “6-mer SELEX enrichment z-score” value is 0.995.

With AACCCT, the “6-mer SELEX enrichment z-score” value is -2.05.

With CCCACT, the “6-mer SELEX enrichment z-score” value is -1.38.

Consider AGTAAA, for which the “6-mer SELEX enrichment z-score” value worked out at 0.801.

As to TCCACG, the “6-mer SELEX enrichment z-score” value is -0.84.
